# Experimental data as given in PMC6919601, “Identification of Plasmodium dipeptidyl aminopeptidase allosteric inhibitors by high throughput screening” (PLoS ONE, 2019).
# About 230 (0.21%) of roughly 110,000 compounds showed an effect of 50% or more. This is one part of the list.
# Target: DPAP1 (Plasmodium falciparum, UniProt Q8IIJ9)
# Test: primary screen, percent inhibition; read by cleavage of a fluorogenic dipeptide substrate; higher = more effect of the substance
# Set-up: species or system P. falciparum D10 trophozoite lysates; single well
# 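Note: 30 min substrate incubation versus DMSO and 10 µM JCP410 controls.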
# Sequence of DPAP1 (Q8IIJ9 whole entry, looked up): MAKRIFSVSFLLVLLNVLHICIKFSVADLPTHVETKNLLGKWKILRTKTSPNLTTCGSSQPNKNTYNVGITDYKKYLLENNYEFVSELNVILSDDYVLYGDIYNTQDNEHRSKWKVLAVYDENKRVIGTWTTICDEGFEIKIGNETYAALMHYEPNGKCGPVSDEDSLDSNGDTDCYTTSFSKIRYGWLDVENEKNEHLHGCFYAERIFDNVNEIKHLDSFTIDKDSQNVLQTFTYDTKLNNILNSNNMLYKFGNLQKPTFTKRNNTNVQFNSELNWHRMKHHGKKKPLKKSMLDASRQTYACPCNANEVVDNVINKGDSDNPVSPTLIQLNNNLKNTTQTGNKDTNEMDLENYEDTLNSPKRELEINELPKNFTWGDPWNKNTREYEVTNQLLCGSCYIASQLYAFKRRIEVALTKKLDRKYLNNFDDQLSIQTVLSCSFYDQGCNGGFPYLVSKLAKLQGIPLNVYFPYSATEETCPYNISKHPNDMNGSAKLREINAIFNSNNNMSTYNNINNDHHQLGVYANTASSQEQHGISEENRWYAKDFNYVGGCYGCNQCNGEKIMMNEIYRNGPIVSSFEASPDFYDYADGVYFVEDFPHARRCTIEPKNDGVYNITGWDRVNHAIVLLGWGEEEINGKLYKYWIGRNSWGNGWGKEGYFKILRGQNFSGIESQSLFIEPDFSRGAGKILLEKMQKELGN
row,Structure (SMILES),% Inhibition @ 10 uM [%]
1,CC(C)NC(=O)CCn1cnc2onc(-c3ccc(F)cc3)c2c1=O,-1.97
2,CCOC(=O)N1CCC(NCc2cccc(C(F)(F)F)c2)CC1,-0.0908
3,Oc1c(C(c2ccccn2)N2CCN(c3ccccn3)CC2)cc(Cl)c2cccnc12 (stereo not drawn),-1.04
4,Cc1c(Cl)cccc1N(CC(=O)N1CCN(c2cccc(Cl)c2)CC1)S(C)(=O)=O,4.59
5,CCOc1ccc(NC(=O)CN2C(=O)S/C(=C/c3c(C)[nH]c4ccccc34)C2=O)cc1,-2.22
6,N#CC1=C(N)Oc2c(c(O)nc3ccccc23)C1c1ccc(F)c(F)c1 (stereo not drawn),-2.21
7,CCc1cc2c(=O)c(-c3nc4ccccc4n3C)c(C)oc2cc1O,-1.07
8,Cc1ccc(C)n1-c1nnc(N2CCCC(C(=O)NCCCN3CCOCC3)C2)s1 (stereo not drawn),2.65
9,COC(=O)c1ccc(S(=O)(=O)N(Cc2ccco2)Cc2cc3ccc(C)cc3nc2O)cc1,8.37
10,COCCN1C=C(C(=O)OC)C(c2cccs2)C(C(=O)OC)=C1,-1.33
11,COc1cc(-c2cc(C(=O)O)c3cc4c(cc3n2)OCCO4)ccc1O,5.19
12,Cc1c(C(=O)NCCCN2CCCC(C)C2)sc2nc3n(c(=O)c12)CCCCC3 (stereo not drawn),-7.32
13,CCOc1cc(Cl)c(C(C)NC(=O)c2ccc(OC)cc2)cc1OCC (stereo not drawn),-3.09
14,COc1ccc(S(=O)(=O)NCCC2CCCN2C)cc1 (stereo not drawn),0.661
15,COC(=O)c1ccc(COc2ccc3c(=O)c(-c4ccc(Cl)cc4)coc3c2)cc1,-2.98
16,COc1ccc(CNC(=O)CN(c2ccc(F)cc2)S(=O)(=O)c2ccccc2)cc1,-15.9
17,Cc1cc(C)nc(SCCN2CCOCC2)n1,-0.636
18,Cc1ccc(CS(=O)Cc2ccc(C(=O)NCC3CCCO3)o2)cc1 (stereo not drawn),1.63
19,OC(Cc1cccnc1)c1ccccc1 (stereo not drawn),-6.06
20,COc1ccc(S(=O)(=O)Cc2ccc(C(=O)NCCCc3ccccc3)o2)cc1,12
21,O=C(CN1C(=O)c2cccc3cccc(c23)C1=O)NCCN1CCOCC1,3.47
22,CC(=O)NS(=O)(=O)c1ccc(NC(=O)c2ccc(-c3ccccc3)cc2)cc1,0.793
23,CCOC(=O)c1c(C)c(C(=O)NCCOC)c(C)n1CC,3.32
24,COc1cc([C@H]2NCC[C@@]3(O)CCCC[C@H]23)cc(OC)c1O,-1.8
25,C=CCSc1ncc(Cl)c(C(=O)Nc2nc3ccc(C)cc3s2)n1,-0.946

row,Structure (SMILES),% Inhibition @ 10 uM [%]
1,CCc1ccc(C2C(C#N)=C(N)Oc3c2c(C)nn3-c2ccccc2)cc1 (stereo not drawn),-2.07
2,Cc1ccc2[nH]c3c(c2c1)CCCC3NCc1ccccc1 (stereo not drawn),2.86
3,COc1cc(C(=O)N2CCN(Cc3cccc(C)c3)CC2)cc(OC)c1OC,-5.85
4,O=C(NCC1CCCO1)c1sc2ccccc2c1Cl (stereo not drawn),4.81
5,CC(=O)c1ccc(NS(=O)(=O)c2ccc(C)c(S(=O)(=O)Nc3ccc(C(C)=O)cc3)c2)cc1,0.361
6,CCO/C(O)=C1\C(C)=NC2=C(C(=O)CC(C)(C)C2)C1c1ccccc1Br (stereo not drawn),1.84
7,Cc1nc2ccccc2c2oc(C(=O)NC3CCCCC3C)cc12 (stereo not drawn),10.4
8,OCCN1CCN(c2ncnc3c2cnn3-c2ccc(F)cc2)CC1,-3.02
9,O=C(CN(CCc1ccccc1)S(=O)(=O)c1ccccc1)Nc1cccc(Br)c1,0.431
10,CCOc1ccc(N2C(=O)CC(Cc3cccc(C)c3)C2=O)cc1 (stereo not drawn),-9.76
11,CCCCN(C)CCCNC(=O)C1CCN(c2nc3c(C)cc(C)cc3s2)CC1,1.8
12,Cc1ccc(C(=O)c2coc3ccc(Br)cc3c2=O)cc1,4.33
13,CCN(CC)CC(=O)NCC1(c2ccccc2)CCOCC1,1.84
14,Cc1ccc(N(CC(=O)Nc2cccc3cccnc23)S(=O)(=O)c2ccc(C)cc2)cc1,-3.69
15,C=CCOC(=O)c1cc(-c2ccc(/C=C3/C(=O)N(CCCO)C(=O)C(C#N)=C3C)o2)ccc1Cl,0.487
16,COc1ccc(OC)c(C(=O)c2coc3ccc(OCC(=O)O)cc23)c1,-0.807
17,COCc1cc(C)nc(SCC(=O)Nc2cccc3ccccc23)c1C#N,3.46
18,COc1ccc(Cl)cc1-n1nnc(-c2nc(-c3cccs3)no2)c1N,0.331
19,CC(C)Oc1ccc(C(=O)Nc2ccc3ccccc3c2)cc1,3.49
20,Cc1ccccc1OCC(=O)Nc1ccccc1Cl,-0.872
21,CC1(C)CC(=O)c2cc(OCC(=O)NCCN3CCOCC3)ccc2O1,-2.65
22,CC(C)CCNC(=O)c1cc2c(-c3ccc(Cl)cc3)nn(C)c2s1,-3.09
23,COc1ccc(NC(=O)C2CC(=O)N(c3ccc(C)cc3)C2)cc1Cl (stereo not drawn),-7.63
24,CCc1ccc(CNC(=O)c2cn(CC(C)C)c(=O)c3c2c2ccccc2n3C)cc1,-0.0541
25,CCCCC(=O)Nc1cccc2cccnc12,21.2

row,Structure (SMILES),% Inhibition @ 10 uM [%]
1,Cc1ccc(NCC(=O)n2c(=O)sc3ccccc32)cc1,3.83
2,Cc1ccccc1Cn1ccn(CCc2ccccc2)c(=O)c1=O,-0.326
3,Oc1nnc(-c2ccc(Cl)cc2)c2ccccc12,-3.03
4,CCC(C)NS(=O)(=O)c1ccc(OCC(=O)N2CCN(c3cc(Cl)ccc3C)CC2)cc1 (stereo not drawn),-0.545
5,Cc1cc(/C=C2/C(=N)N3C(=NC2=O)SN=C3S(C)(=O)=O)c(C)n1-c1ccc(C(C)C)cc1,-1.58
6,CCOc1ccc(OCc2ccc(C(=O)Nc3cccnc3)o2)cc1,-4.82
7,Cc1cc(C(=O)NCCCN2CCOCC2)c2c(C)nn(-c3ccccc3Cl)c2n1,-1.3
8,CN(Cc1ccccc1)C(=O)c1noc2c1COc1ccccc1-2,7.85
9,CCNc1nc(NCC)nc(Oc2ccc(OCc3ccccc3)nn2)n1,-4.49
10,C=CCSc1nnc2c(n1)[nH]c1ccccc12,36.9
11,O=C(NCc1ccc2c(c1)OCO2)c1ccc(CSc2nc3ccncc3[nH]2)cc1,10.7
12,O=C(CSc1nnc(-c2cccs2)n1-c1ccccc1)Nc1ccnc2ccccc12,0.9
13,COc1ccc(Oc2coc3cc(OCC(=O)O)ccc3c2=O)cc1,13.2
14,CCOCCCNS(=O)(=O)c1ccc(-c2ccc(O)nn2)o1,1.75
15,CS(=O)(=O)c1ccc2nc(NC(=O)c3ccco3)sc2c1,-0.661
16,COc1cc(C(=O)N(Cc2ccco2)Cc2ccc(C)o2)cc(OC)c1OC,-1.07
17,O=C(O)CCn1nc(Nc2ccccc2)n(-c2ccccc2)c1=S,-1.69
18,CCS(=O)(=O)c1nc2ccccc2n1Cc1ccccn1,-3.34
19,COC(=O)Nc1sc2c(c1C#N)CCC(C(C)(C)C)C2 (stereo not drawn),-0.988
20,O=C(c1cnn2ccccc12)N1CCN(C2CCCCC2)CC1,3.59
21,COc1ccc(/C=C2/SC(=O)N(CC(=O)Nc3ccccc3)C2=O)cc1O,-4.59
22,COc1ccc(-c2noc(CC(=O)Nc3ccc(NC(C)=O)nc3)n2)cc1,-1.39
23,CC(C)Nc1nc2ccccc2n2cnnc12,-4.21
24,CCOc1ccc(CCNC(=O)c2cc3ccc4cccnc4c3[nH]2)cc1OCC,13.7
25,CCN1CCN(C2CCc3ccccc3C2)CC1 (stereo not drawn),-1.96

row,Structure (SMILES),% Inhibition @ 10 uM [%]
1,COc1ccc(C(=O)Nc2ccc(C)c(C)c2)cc1OC,3.24
2,O=C(COc1ccc(Cl)c(Cl)c1)N(Cc1ccc(Cl)cc1Cl)c1cccc(Cl)c1,-5.23
3,N#CC1=C(NC(=S)NC(=O)c2ccccc2)c2ccccc2CC12CCCCC2,2.58
4,Cn1c(Sc2ccnc3cc(Cl)ccc23)cc(=O)n(C)c1=O,18
5,O=c1c2cc3c(=O)n(Cc4cccs4)ccc3nc2ccn1Cc1cccs1,2.39
6,O=C(NCCc1cccs1)c1cc2c(Cl)ccc3c2n1CCO3,0.453
7,FC(F)(F)c1ccc(CN2CCN(c3ncccn3)CC2)cc1,6.33
8,Cn1nc(C(=O)NCCc2ccsc2)c2c1-c1ccccc1SC2,27.3
9,O=C(O)CSc1cc[n+](CC(=O)c2ccccc2)cc1,-0.947
10,CCOc1ccc(CNS(=O)(=O)c2c(C)nc3sccn3c2=O)cc1OC,-4.99
11,CC(C)(C)/N=C(\NS(=O)(=O)c1ccc(Cl)cc1)c1ccccc1,-1.69
12,COc1cccc(C2C=C(c3ccc(F)cc3)Nc3nc4ccccc4n32)c1OC (stereo not drawn),-1.62
13,COC(F)(C(=O)Nc1ccc(Br)c2cccnc12)C(F)(F)F (stereo not drawn),-3.06
14,O=C(O)c1cc2c(s1)CCCC2,1.22
15,Cc1ccc(-c2nc3scc(CCNC(=O)c4ccc(Br)cc4)n3n2)cc1,5.7
16,CC1=CN2C(=N)/C(=C/c3cc(C)n(-c4cccc(C)c4)c3C)C(=O)N=C2S1,-6.78
17,CCOc1ccc2nc(NC(=O)c3cc(Br)ccc3Cl)sc2c1,-0.769
18,COc1ccc(C2CC(=O)Nc3c2ccc2ccccc32)cc1 (stereo not drawn),-4.03
19,COC(=O)c1ccc(CN2CC=C(c3ccc(F)cc3)CC2)cc1,1.54
20,O=C(c1ccc(Br)cc1)N(Cc1ccc(Cl)cc1Cl)c1cccc(Cl)c1,-2.51
21,COc1cc(C=O)ccc1OS(=O)(=O)c1ccc(F)cc1,3.25
22,COc1ccc(C2C3=C(O)CCCC3=NC(C)=C2C(=O)Nc2ccccc2F)cc1OC (stereo not drawn),0.851
23,Cc1ccc(NC(=O)c2ccc([N+](=O)[O-])o2)cc1C,-6.12
24,COc1ccc(CNC(=O)CN2N=C(c3ccc(Cl)cc3)CCC2=O)c(OC)c1,-10.8
